Results as given in PubChem BioAssay AID686970 (National Center for Advancing Translational Sciences (NCATS), 2013).
Among all 360,000 compounds or so, about 6,000 (1.7%) were called active. The shares of active, inactive and inconclusive entries below differ from those in the screen. The call rests on the fitted dose curve; in most records, active means well fitted cell-killing curve with a large enough effect; inconclusive means small, poorly fitted or top-dose-only effect, or effect the other way; inactive means flat fitted curve, though single readings scatter. Potencies of inconclusive entries are left out as doubtful fits.

test: qHTS for induction of synthetic lethality in tumor cells producing 2HG: qHTS for the HT-1080-NT fibrosarcoma cell line; conditions: HT-1080-NT fibrosarcoma viability, CellTiter-Glo ATP luminescence, 48 h; activity, negative = less viability: at 46.1 µM (top of the series) unless noted;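 further: NT is the 2HG producing partner of a matched IDH1 knockdown line; nearly all actives have a fitted effect of over 55% in size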;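 on activity, negative = less viability: 0% = DMSO-treated cells and -100% = media-only wells without cells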
How it was run: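 Fibrosarcoma NT cells, 750 per well in 5% FBS RPMI, were exposed to compound for 48 hours. Viability: CellTiter-Glo luminescence.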
Potency means the concentration at half of the fitted maximal effect; tags describe the fitted curve by direction and shape.

| Compound | activity, negative = less viability | Potency |
| --- | --- | --- |
| CC(=O)Nc1ccc(S(=O)(=O)N2CCN=C2c2ccccc2)cc1 | inactive: -3.95% | – |
| Cc1c(C(=O)Nc2nc3ccccc3[nH]2)cccc1[N+](=O)[O-] | inactive: 2.59% | – |
| COc1cccc(-n2c(CN3CCN(c4cccc(C)c4)C(C)C3)nc3ccc([N+](=O)[O-])cc3c2=O)c1 (centres undefined) | inactive: -7.99% | – |
| COc1ccc(OC2C(=O)N(Cc3ccc4c(c3)OCO4)C2c2cccs2)cc1 (centres undefined) | – | inconclusive [cytotoxic, single point] |
| COc1ccc(N/C(N)=N/c2nc(CSc3nnc(C)s3)cc(=O)[nH]2)cc1 | – | active: 3.26 µM |
| COc1cc(/C=N/NC(=O)CCc2n[nH]c(=O)[nH]c2=O)ccc1O | – | inconclusive [rising, single point] |
| CC1CN(S(=O)(=O)c2ccc(Cl)c(S(=O)(=O)N3CC(C)OC(C)C3)c2)CC(C)O1 (centres undefined) | inactive: -0.226% | – |
| COc1ccc(N2CCN(C(CNC(=O)C(C)(C)C)c3cccnc3)CC2)cc1 (centres undefined) | inactive: -1.63% | – |
| O=C(CCl)Nc1cccc(CP(=O)(c2ccccc2)c2ccccc2)c1 | – | active: 4.11 µM |
| COc1ccc(Nc2cc(C)nc(NCc3ccccc3)n2)cc1 | – | active: 18.4 µM |
| CN(C)C(=S)NC(=O)c1cccc(Cl)c1 | – | inconclusive [cytotoxic, single point] |
| COc1ccccc1-c1oc2ccccc2c1C#CCCO | inactive: 6.9% | – |
| C=CCn1c(=NC(=O)c2cc(Cl)sc2Cl)sc2cc(S(N)(=O)=O)ccc21 | – | inconclusive [cytotoxic, single point] |
| O=P(c1ccccc1)(c1ccccc1)c1nc(-c2ccccc2)oc1NCc1ccccc1 | inactive: -2.5% | – |
| COc1ccc(-n2cc(-c3ccccc3)nc2SC)cc1 | inactive: -1.03% | – |
| CCCNC(=O)c1cc(C2CCCCN2C(=O)c2ccc(C(C)C)cc2)on1 (centres undefined) | inactive: -2.95% | – |
| COc1cc(/C=C2\COC/C(=C\c3cc(OC)c(OC)c(OC)c3)C2=O)cc(OC)c1OC | – | inconclusive [cytotoxic, full curve, poor fit] |
| O=C(c1ccco1)N1CCN(C(=O)C2CCCc3c2[nH]c2ccc(Cl)cc32)CC1 (centres undefined) | – | inconclusive [cytotoxic, single point] |
| CC1(c2nnc(-c3ccc(F)cc3)o2)CC(c2cccc(Cl)c2)=NO1 (centres undefined) | inactive: -3.67% | – |
| CCCC(=O)Nc1nnc(SCC(=O)Nc2ccc3c(c2)OCCO3)s1 | – | inconclusive [cytotoxic, single point] |
| Cc1ccccc1OCC(O)CN1CCN(CC(O)COc2ccccc2C)C(C)C1 (centres undefined) | – | active: 25.9 µM |
| CC1O[C@@H](O[C@H](C)CC/C=C/C(=O)O)C(O)C[C@H]1O (some centres undefined) | inactive: 4.4% | – |
| CC(=O)[C@@H]1[C@@H](C(=O)c2ccc(C)cc2)[C@]2(C(=O)Nc3ccccc32)[C@H]2C=Cc3cc(F)ccc3N12 | – | inconclusive [cytotoxic, single point] |

| Compound | activity, negative = less viability | Potency |
| --- | --- | --- |
| COc1ccc(-c2[nH]nc3nc(N4CCN(C(=O)c5ccoc5)CC4)cc(C(F)(F)F)c23)cc1 | – | inconclusive [cytotoxic, single point] |
| Cc1oc(-c2ccc(Cl)cc2)nc1CN1CCCC(C(=O)NCc2cccnc2)C1 (centres undefined) | – | inconclusive [cytotoxic, single point] |
| COc1ccccc1-c1cc(NC(C)=O)c2ncc(-c3ccccc3)n2c1 | – | active: 23.1 µM |
| Nc1c(-c2ccccc2)c(CN2CCOCC2)nn1-c1ccc(C(=O)O)cc1 | – | inconclusive [rising, single point] |
| OC(c1ccc(-c2ccccc2)cc1)c1ncc(-c2ccc(F)cc2)[nH]1 (centres undefined) | – | inconclusive [cytotoxic, single point] |
| O=[N+]([O-])c1ccc(NN=Cc2ccccc2O)nc1 | – | inconclusive [cytotoxic, partial curve] |
| COc1cc(NC(=O)c2cc([N+](=O)[O-])ccc2NC(=O)CNC2CCCCC2C)cc(OC)c1 (centres undefined) | – | inconclusive [cytotoxic, partial curve] |
| CCOc1ccc(NC(=O)C(C)SC(N)=O)cc1 (centres undefined) | – | inconclusive [cytotoxic, single point] |
| COc1ccc(-c2nnc(SCC(=O)c3cccs3)n2-c2ccc(Cl)cc2)cc1 | – | inconclusive [cytotoxic, single point] |
| CC1=NN(C(=O)c2cccnc2)C(O)(C(F)(F)F)C1 (centres undefined) | – | inconclusive [cytotoxic, single point] |
| COc1ccc(-c2ccc3[nH]c4c(c3c2)CCN2C[C@@H]([C@H](C)O)[C@@H](N(C)C(=O)Nc3cc(Cl)cc(Cl)c3)C[C@@H]42)cc1 | – | inconclusive [cytotoxic, single point] |
| O=C(Nc1ccc(C(F)(F)F)cc1)C1CCN(S(=O)(=O)c2ccc(N3CCCC3=O)cc2)CC1 | inactive: -7.69% | – |
| CCCCOCCCNC(=O)C[C@@H]1C[C@@]2(C(=O)OC)CC(C)(C)CC=C2N(Cc2cccc3ccccc23)C1=O | – | inconclusive [cytotoxic, single point] |
| O=S1(=O)C=C(Sc2nc3cc(Cl)ccc3o2)c2ccccc21 | – | active: 5.17 µM |
| COc1cccc(C2CC(c3cccs3)=NN2C(=O)c2ccco2)c1O (centres undefined) | – | inconclusive [cytotoxic, single point] |
| CCOc1ccccc1NC(=O)CSc1nnc2c(CC)c(C)nc(N)n12 | – | inconclusive [rising, single point] |
| Cc1c(/C(O)=C2\C(=O)C(=O)N(CCCN(C)C)C2c2cccs2)cnn1-c1ccccc1 (centres undefined) | – | inconclusive [rising, partial curve, poor fit] |
| COc1ccc(NC(=O)c2cc(-c3ccncc3)nc3ccccc23)c(OC)c1 | – | inconclusive [cytotoxic, partial curve] |
| CCOc1ccc(CSC(=N)N)cc1[N+](=O)[O-] | – | inconclusive [cytotoxic, single point] |
| Cc1sc2ncnc(SCC(=O)NC(=O)c3cccn3C)c2c1C | – | inconclusive [cytotoxic, partial curve] |
| COC(=O)CCC(=O)c1oc2ccc(OC)cc2c1N | inconclusive: 34.5% | – |
| O=C(Nc1ccc2c(c1)OCCO2)c1ccccn1 | – | inconclusive [cytotoxic, partial curve] |
| C=CC[C@@H](CC(=O)N[C@H](CO)Cc1ccccc1)C(=O)N[C@H](COC(=O)[C@@H](CC=C)Cc1ccc(F)cc1)C(C)(C)C | – | inconclusive [cytotoxic, partial curve] |

| Compound | activity, negative = less viability | Potency |
| --- | --- | --- |
| C/C(N)=C(/C#N)C(=O)CSc1nncn1-c1ccccc1 | – | inconclusive [rising, single point] |
| CCc1cccc2c(C(=O)CN3C(=O)N(C)C4(CCCCC4)C3=O)c[nH]c12 | – | active: 18.4 µM |
| COc1ccc(S(=O)(=O)N2CCN(C(=O)c3cc(-c4ccc(Br)cc4)n[nH]3)CC2)cc1OC | – | inconclusive [cytotoxic, single point] |
| Nc1ccc2nc(-c3ccc(Cl)cc3)[nH]c2c1 | – | active: 23.1 µM |
| CC(C)n1cc(CN2CCCC(C(=O)Nc3cccc(-c4cc5ccccc5[nH]4)c3)C2)cn1 (centres undefined) | – | active: 20.6 µM |
| CCOc1cc(CNCCN2CCOCC2)ccc1OCc1ccccc1Cl | – | inconclusive [cytotoxic, single point] |
| O=C(/C=C/c1ccc(Br)cc1)NC(=S)NNC(=O)c1ccco1 | – | active: 16.4 µM |
| CN1CCN(c2ccc(-c3cc(NC=O)c4ncc(-c5ccc(F)cc5)n4c3)cc2)CC1 | – | inconclusive [cytotoxic, single point] |
| Cn1cc(C(=O)c2ccc(Cl)cc2Cl)cc1C=O | – | inconclusive [cytotoxic, single point] |
| S=C(Nc1ccc(Br)cc1Cl)NC1CCN(Cc2ccccc2)CC1 | – | inconclusive [cytotoxic, single point] |
| N#C/C(=C(/O)c1ccc2c(c1)OCO2)c1nc2cc(C(F)(F)F)ccc2s1 | – | inconclusive [cytotoxic, partial curve, poor fit] |
| CCc1ccc(S(=O)(=O)Nc2cc3c(cc2C)n(C)c(=O)n3C)cc1 | – | active: 16.4 µM |
| CCn1c2ccccc2c2nc3cc(C(=O)O)ccc3nc21 | – | inconclusive [cytotoxic, single point] |
| FC(F)Oc1ccc(-c2csc(=Nc3cccnc3)n2CC2CCCO2)cc1 (centres undefined) | inactive: -4.13% | – |
| CC(=O)c1sc(NC(=O)c2ccccc2F)nc1C | – | inconclusive [cytotoxic, single point] |
| Cn1c(-c2ccccn2)[n+](C)c2ccccc21 | inactive: 8.14% | – |
| CC1CCN(C(=O)CSc2nc3ccccc3c(=O)[nH]2)CC1 | – | inconclusive [cytotoxic, single point] |
| COc1ccc(CN(Cc2cc3cccc(C)c3n3nnnc23)C(=O)N2CCOCC2)cc1 | inactive: -0.0563% | – |
| CC(C)(C)c1ccc(C(=O)NC(=S)NNC(=O)COc2ccccc2)cc1 | – | inconclusive [cytotoxic, single point] |
| Cc1cccc2c1-c1sc(C(=O)NCCCN3CCC(C)CC3)cc1CO2 | inconclusive: -102% | – |
| CCOCCCn1c(SCc2nc3ccccc3s2)nc2ccccc2c1=O | – | inconclusive [cytotoxic, single point] |
| CC(C)c1ccc(N=C2NN=C(c3cccs3)CS2)cc1 | – | inconclusive [cytotoxic, single point] |
| COc1cc2c(cc1NS(=O)(=O)N1CCCCC1)oc1ccccc12 | – | inconclusive [cytotoxic, single point] |
